Reference: publication PMC4336329 (PLoS ONE, 2015)
The whole screen tested about 310,000 compounds, of which about 14,000 (4.5%) showed an effect of 50% or more. Effects have a minus sign here. The list shows a part of the results. Where a SMILES comes first, the peptide text is derived from it. [ ]: non-standard residue; d: D form. The star is where a group is joined. ξ: configuration not given here. ξF = NC(Cc1ccccc1)C(=O)O; Cbz = O=C(OCc1ccccc1)*

Each compound was assayed against human ether-à-go-go-related gene (hERG) potassium channel (human, UniProt Q12809) (assay: primary screen, population patch clamp on CHO cells stably expressing hERG).
Chain of human ether-à-go-go-related gene (hERG) potassium channel (Q12809 whole entry, looked up): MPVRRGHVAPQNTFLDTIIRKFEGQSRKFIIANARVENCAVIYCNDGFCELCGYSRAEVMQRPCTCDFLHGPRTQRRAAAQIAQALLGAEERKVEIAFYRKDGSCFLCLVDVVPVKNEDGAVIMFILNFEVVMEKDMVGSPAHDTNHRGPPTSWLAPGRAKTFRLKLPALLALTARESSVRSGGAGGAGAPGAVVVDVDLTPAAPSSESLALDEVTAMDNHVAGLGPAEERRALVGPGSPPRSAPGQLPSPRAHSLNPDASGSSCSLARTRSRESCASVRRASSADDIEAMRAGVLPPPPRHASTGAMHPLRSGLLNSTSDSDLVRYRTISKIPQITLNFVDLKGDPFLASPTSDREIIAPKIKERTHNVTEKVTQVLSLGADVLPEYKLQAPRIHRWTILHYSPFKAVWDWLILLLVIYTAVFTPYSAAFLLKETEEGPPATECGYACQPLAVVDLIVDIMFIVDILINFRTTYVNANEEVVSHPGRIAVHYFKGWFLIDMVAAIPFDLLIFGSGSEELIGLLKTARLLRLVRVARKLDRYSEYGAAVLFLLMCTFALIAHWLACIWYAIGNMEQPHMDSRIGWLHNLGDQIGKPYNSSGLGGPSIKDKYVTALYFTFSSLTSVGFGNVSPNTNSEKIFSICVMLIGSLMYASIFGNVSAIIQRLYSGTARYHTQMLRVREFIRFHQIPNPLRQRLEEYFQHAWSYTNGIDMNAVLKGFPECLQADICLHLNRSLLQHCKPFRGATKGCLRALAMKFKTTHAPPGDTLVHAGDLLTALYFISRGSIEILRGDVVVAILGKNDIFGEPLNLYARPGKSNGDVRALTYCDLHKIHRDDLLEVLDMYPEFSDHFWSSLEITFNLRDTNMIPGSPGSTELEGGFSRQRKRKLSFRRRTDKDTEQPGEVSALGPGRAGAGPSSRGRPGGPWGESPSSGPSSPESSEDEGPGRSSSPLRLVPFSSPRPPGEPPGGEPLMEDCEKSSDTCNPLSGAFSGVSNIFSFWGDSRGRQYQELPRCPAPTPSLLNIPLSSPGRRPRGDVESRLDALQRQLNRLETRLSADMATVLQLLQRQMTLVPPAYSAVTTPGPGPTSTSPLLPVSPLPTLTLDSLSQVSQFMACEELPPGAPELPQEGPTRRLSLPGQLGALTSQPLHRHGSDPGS
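Further: peak tail current of the secondary pulse compared with the same well before compound.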

Compound | hERG current change (%, negative = inhibition) at 10uM [%]
COc1cc(/C=N\NC(=O)CNC(=O)C(c2ccccc2)c2ccccc2)ccc1O | -25.7
COc1ccc(S(=O)(=O)N2CCN(CC(=O)Nc3ccc(F)c(F)c3)CC2)cc1 | -66.4
Cc1cc(C)n(-c2ccc(C(=O)O)cc2[N+](=O)[O-])n1 | 12.5
Cc1cc2nc(C)c(Cl)c(=O)n2[nH]1 | 22.4
O=C(COC(=O)C1c2ccccc2Oc2ccccc21)Nc1ccc2c(c1)OCO2 | 8.92
Cc1ccc(OC(C)C(=O)N2CC(=O)Nc3ccccc32)c(C)c1 (stereo not shown) | 2.56
Cc1nnc(SC(C)C)n(N)c1=O | 19.6
COc1ccc(CCNC(=O)COC(=O)/C=C/c2ccc(OCC#N)c(OC)c2)cc1 | 3.03
CN(CC(=O)N1CCc2[nH]c3ccc(F)cc3c2C1)CC1OCCO1 | 5.81
CCc1cc(=O)oc2cc(C)cc(OCC(=O)N3CCC[C@@H]3C(=O)O)c12 | 6.83
COC(=O)C1C(c2ccc(OC)c(OC)c2)NC(c2ccc(OC)c(OC)c2)C(C(=O)OC)S1(=O)=O (stereo not shown) | 14.1
CC(=O)N(C)c1ccc(NC(=O)N2CCOCC2)cc1 | 4.94
CCc1ccc(S(=O)(=O)Nc2c(C)nc3nc[nH]n3c2=O)cc1 | 19.9
CN(C)C(=O)CN1CCN(Cc2cn(C)nc2-c2ccc3c(c2)OCCO3)CC1 | 5.11
O=C(CCc1ccccc1)NCCCN1CCOCC1 | 12.3
CCN(CC(=O)Nc1c(F)cccc1F)C(=O)c1ccc(-c2ccc(C(C)=O)cc2)o1 | -25.6
COc1ccc(C(=O)NCc2ccc(C)cc2)cc1S(=O)(=O)N1CCCc2ccccc21 | -5.67
COc1ccc(OC)c(NC(=O)c2cccc(C)c2[N+](=O)[O-])c1 | 18.4
COc1cccc(C2=CC(c3cccs3)n3nnnc3N2)c1 (stereo not shown) | 14.5
O=C(CN1CCC(C(=O)c2ccc(F)cc2)CC1)NCc1ccccc1F | -39.6
O=C(c1cc(C(=O)NCc2ccccc2)c(=O)n(Cc2ccccc2)c1)c1cc(Br)ccc1O | -3.34
COc1ccc(CN2C(=O)[C@@H]3Cc4c([nH]c5ccccc45)C(C)(C)N3C2=O)cc1 | -11.6

Compound | hERG current change (%, negative = inhibition) at 10uM [%]
COCCNC(=O)C(=O)Nc1ccc(Br)cc1 | 2.86
CCCn1c(-c2cccc([N+](=O)[O-])c2)nc2c1c(=O)[nH]c(=O)n2Cc1ccccc1 | -66.4
COc1ccc(/C=C(/NC(=O)c2ccccc2)c2nc3ccc(Cl)cc3[nH]2)cc1OC | -16.6
COc1ccccc1-c1nnc(NC(=O)CSc2nncn2C)s1 | 0.916
COC(=O)NCc1ccc(CNC(=O)OC)cc1 | 4.84
CCOc1ccc(-c2cc(CCCC(=O)NCc3ccco3)no2)cc1 | -9.6
Cn1c(SCC(=O)Nc2ccc3c(c2)OCCO3)nnc1-c1ccccn1 | -4.53
O=C(CSc1n[nH]c(-c2cccnc2)n1)Nc1ccc([N+](=O)[O-])cc1Br | -20.9
Cc1ccc(S(=O)(=O)NC(=O)c2cccc(Br)c2)cc1 | 10.6
O=C(Nc1cc([N+](=O)[O-])ccc1N1CCCC1)c1cccs1 | -65.4
CN(C(=O)COC(=O)c1ccc(Cl)nc1)c1c(N)n(Cc2ccccc2)c(=O)[nH]c1=O | 7.34
COc1ccccc1CNC(=O)N/C=C/c1ccc(Cl)cc1 | 8.3
CCOC(=O)C(Cc1ccccc1)NC(=O)CNC(=O)CNC(=O)OCc1ccccc1 (stereo not drawn) (Cbz-Gly-Gly-[ξF]-OEt) | 15.9
CSc1ccccc1-n1nnnc1SCC(=O)NCc1cccs1 | -8.64
COc1c(OC)c2[nH]c(=O)cc3c4ccccc4n(c1=O)c23 | -23.3
Cc1ccc(C(=O)Nc2ncnc3sc4c(c23)CCCCC4)cc1 | 0.0753
Cc1cc(NC(=O)CCC(=O)N(Cc2ccccc2)C(C(=O)NC2CCCC2)c2ccco2)no1 (stereo not shown) | -21.8
CCOC(=O)c1csc(-n2nc(C)cc2C(F)(F)F)n1 | 9.28
COc1ccc(OC)c(C(c2c(O)c3ccccc3oc2=O)c2c(C)n(C)n(-c3ccccc3)c2=O)c1 (stereo not shown) | 13.8
CC(Cc1cccnc1)NC(=O)CCc1nnc(-c2ccccc2)o1 (stereo not shown) | 12.9
C[C@@H](CO)NC(=O)c1ccc2c3n(nc2c1)-c1ccccc1CO3 | 9.12
Cc1ccc(C)c(OCC(=O)N2CCOCC2)c1 | 4.81

Compound | hERG current change (%, negative = inhibition) at 10uM [%]
O=C(CN1CCCC1)Nc1ccc(Cl)cc1C(=O)c1ccccc1.O=C(O)C(=O)O | -46.8
Cc1ccc(OCCOc2cccc(C=C3C(=O)NC(=O)NC3=O)c2)cc1 | 21.5
C=CCNC(N)=S | 22.5
Cc1nc(N)sc1C(=O)N/N=C/c1cccnc1 | 19.7
COc1ccccc1N1CCN(S(=O)(=O)c2cc(Br)cnc2N)CC1 | 6.94
CCOc1ccc2[nH]c(=O)c(CN(CCN3CCCC3)C(=S)Nc3ccccc3OC)cc2c1 | -49.7
COC(=O)c1nc2nc(-c3cccs3)cc(C(F)(F)F)n2n1 | 14.9
O=C(Cc1cccs1)NCc1ccco1 | 4.54
COc1ccc(Cl)cc1NC(=O)c1ccoc1C | 4.3
CCOc1ccccc1NC(=O)CSc1nnc(-c2ccccc2Cl)n1Cc1ccco1 | -32
CCOC(=O)C1=C(COC(=O)/C=C/c2cccc(OC)c2OC)NC(=O)NC1C (stereo not shown) | 8.07
COc1ccc(CNC(=O)C2CC(=O)N(C3CCCCC3)C2)cc1 (stereo not shown) | 13.7
O=C(O)c1cc(S(=O)(=O)Nc2cccc3ccccc23)c(Cl)cc1Cl | 18.4
N#Cc1ccccc1NC(=O)COc1c(Br)cc(Br)c2cccnc12 | 4.2
COc1cccc(-c2ocnc2C(=O)Nc2ccc3c(c2)CCC3)c1 | 6.88
CCC(NC(=O)c1ccc([N+](=O)[O-])cc1[N+](=O)[O-])c1ccccc1 (stereo not shown) | -56
COc1ccccc1Cc1nc(-c2ccncc2)no1 | 11.8
O=S1(=O)C=C(SCCN2CCCCC2)c2ccccc21 | -28
CN(CC(=O)Nc1ccc(Cl)c(C(F)(F)F)c1)C(=O)c1ccc2c(c1)NC(=O)CS2 | -12.7
COc1cc(C(=O)OCC(=O)N(C)Cc2ccccc2)cc(OC)c1OC | 1.05
CCCCNC(=O)C12CCC(C)(C(=O)C1Br)C2(C)C (stereo not shown) | -3.64
O=C(c1cccc(Br)c1)N1CCCC1 | 0.701

Compound | hERG current change (%, negative = inhibition) at 10uM [%]
CCOC(=O)c1[nH]c2cc3c(cc2c1NC(=O)CN1CCC(C)CC1)OCO3 | -6.85
C[N+](C)(C)CCN(Cc1ccc(Cl)cc1)c1ccccn1.[I-] | -14.4
Cc1sc2nc(CSc3ccccc3)nc(N3CCN(C)CC3)c2c1C | -58.5
CCOc1ccc(N(CC(=O)NC2CCCCC2)S(=O)(=O)c2c(C)noc2C)cc1 | 2
CCOc1c2c(nc3ccc(Cl)cc13)CCC2 | 11.3
O=C(CSc1nnnn1-c1ccc2c(c1)OCCO2)OC1CCCCC1 | -8.13
Cc1ccc(CNC(=O)CCc2ccc(S(=O)(=O)NC3CCCCC3)cc2)cc1 | 17.4
COc1cc(OC)cc(C(=O)N/N=C2/SCC(=O)N2Cc2ccco2)c1 | -12.2
CCCCNc1c2c(nc3c(-c4ccccc4)c(C)nn13)CCC2 | -3.59
CCOc1ccc(NC(=O)c2sc3nc(C)nc(N4CCOCC4)c3c2C)cc1 | -50.7
CC1CCCC(C)N1C(=O)CSc1nnc(CSc2ncccn2)n1C (stereo not shown) | 9.02
CCC(=O)c1cn([C@H](CCC(OC)OC)CC(=O)OC(C)(C)C)cc1CC | 8.38
Cc1ccc(NC(=O)c2ccc(S(=O)(=O)N3CCC(C)CC3)cc2)cc1 | -5.78
CCCN(CC(=O)Nc1ccccc1C)C(=O)c1ccc(-c2ccc(C(C)=O)cc2)o1 | -15.8
CCN(CC)S(=O)(=O)c1cc(C(=O)Nc2cccnc2Cl)ccc1Cl | 8.87
CNC(C)CCC=C(C)C.O=C(O)C(O)C(O)C(O)C(O)C(=O)O (stereo not shown) | 15.3
CCCCN1C[C@H](Cc2ccccc2)[C@@H](CC(=O)NCc2ccc(OC)cc2)C1=O | -61.8
COc1cc(/C=N/N(C)C)ccc1OC(=O)c1ccco1 | 50.4
CC(C(=O)O/N=C(\N)c1cccnc1)c1ccc([N+](=O)[O-])cc1 (stereo not shown) | -56.8
CCc1cccc(NC(=O)CCc2c(C)nn(-c3ccc(N4CCCCC4)nn3)c2C)c1 | -19
c1ccc(CSc2nnc(-c3ccco3)o2)cc1 | 13
COc1ccc(CNn2c(C)nc3ccccc3c2=O)cc1 | -6.38
